This is one part of the list. Sequences were assembled here from the parent chain. Values near 0.05 are background.
B1: TEV protease; numbered along this chain (parent)
chain: MGESLFKGPRDYNPISSSICHLTNESDGHTTSLYGIGFGPFIITNKHLFRRNNGTLVVQSLHGVFKVKDTTTLQQHLVDGRDMIIIRMPKDFPPFPQKLKFREPQREERICLVTTNFQTKSMSSMVSDTSCTFPSGDGIFWKHWIQTKDGQCGSPLVSTRDGFIVGIHSASNFTNTNNYFTSVPKNFMELLTNQEAQQWVSGWRLNADSVLWGGHKVFMVKPEEPFQPVKEATQL

Variants of: B1
Assay: raw area under fraction-flipped curve 0-4 h after induction (AUC4h, not background-subtracted), DNA-recorder readout of cleavage of the substrate (dimensionless); higher = more cleavage of the substrate by the protease variant
Conditions: temperature: 34 °C; time window: 0-4 h after rhamnose induction
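Note: Bxb1 expression induced with 0.2% (w/v) L-rhamnose at OD600 near 0.5, cultures sampled hourly, flipped fraction per protease–substrate barcode pair counted by paired-end Illumina sequencing.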

Row | Variant | area with substrate ENLYGQS | area with substrate ENLYIQS | area with substrate ENLYKQS | area with substrate ENLYSQS | area with substrate ENLYTQS | area with substrate ENLYEQS | area with substrate ENLYHQS | area with substrate ENLYMQS | area with substrate ENLYNQS | area with substrate ENLYPQS | area with substrate ENLYQQS | area with substrate ENLYVQS | area with substrate ENLYWQS | area with substrate ENLYYQS | area with substrate ENLYRQS | area with substrate ENLYLQS
1 | MGESLFKGPRDYNPISSSICHLTNESDGHTTSLYGIGFGPFIITNKHLFRRNNGTLVVQSLHGVFKVKDTTTLQQHLVDGRDMIIIRMPKDFPPFPQKLKFREPQREERICLVTTNFQTKSMSSMVSDTSCTFPSGDGIFWKHWIQGKDGQCGSPLVSTRDGFIVGIHSASNFTNTNNYFTSVPKNFMELLTNQEAQQWVSGWRLNADSVLWGGHKVFMVKPEEPFQPVKEATQL [T147G] | 0.0835 | 0.069 | 0 | 0.0822 | 0.0498 |  |  |  |  |  |  |  |  |  |  | 
2 | MGESLFKGPRDYNPISSSICHLTNESDGHTTSLYGIGFGPFIITNKHLFRRNNGTLVVQSLHGVFKVKDTTTLQQHLVDGRDMIIIRMPKDFPPFPQKLKFREPQREERICLVTTNFQTKSMSSMVSDVSCTFPSGDGIFWKHWIQTKDGQCGSPLVSTRDGFIVGIHSASNFTNTNNYFTSVPKNFMELLTNQEAQQWVSGWRLNADSVLWGGHKVFMVKPEEPFQPVKEATQL [T129V] | 0.047 |  | 0.0513 |  | 0.0747 | 0.0722 | 0.0627 | 0.0711 | 0.08 | 0.0357 | 0.0561 | 0.129 | 0.0664 | 0.0714 |  | 
3 | MGESLFKGPRDYNPISSSICHLTNESDKHTTSLYGIGFGPFIITNKHLFRRNNGTLVVQSLHGVFKVKDTTTLQQHLVDGRDMIIIRMPKDFPPFPQKLKFREPQREERICLVTTNFQTKSMSSMVSDTSCTFPSGDGIFWKHWIQTKDGQCGSPLVSTRDGFIVGIHSASNFTNTNNYFTSVPKNFMELLTNQEAQQWVSGWRLNADSVLWGGHKVFMVKPEEPFQPVKEATQL [G28K] |  | 0.0836 | 0.0244 | 0.0717 | 0.0745 | 0.0607 | 0.0619 | 0.0712 | 0.0558 | 0.0666 |  | 0.0947 | 0.0776 | 0.0558 |  | 
4 | MGESLFKGPRDYNPISSSICHLTNESDGHTTSLYGIGFGPFIITNKHLFRRNNGTLVVQSLHGVFKVKDTTTLQQHLVDGRDMIIIRMPKDFPPFPQKLKFREPQREERICLVTTNFQTKSMSSMVSDTSCTFPSGDGIFWKHWIQTKDGQCGSPLVSTRDGFIVGIHSASNFTNTNNYFTSVPKNFMELDTNQEAQQWVSGWRLNADSVLWGGHKVFMVKPEEPFQPVKEATQL [L191D] | 0.0619 | 0.0676 |  | 0.062 | 0.0581 | 0.0663 | 0.06 | 0.0534 | 0.0506 | 0.0469 | 0.0526 | 0.0613 |  |  | 0.0631 | 
5 | MGESLFKGPRDYNPISSSICHLTNESDGHTTSLYGIGFGPFIITNKHLFRRNNGTLVVQSLHGVFKVKDTTTLQQHLVDGRDMIIIRMPKDFPPFPQKLKFREPQREERIWLVTTNFQTKSMSSMVSDTSCTFPSGDGIFWKHWIQTKDGQCGSPLVSTRDGFIVGIHSASNFTNTNNYFTSVPKNFMELLTNQEAQQWVSGWRLNADSVLWGGHKVFMVKPEEPFQPVKEATQL [C111W] |  | 0.121 |  |  | 0.0751 | 0.0703 | 0.0536 |  |  | 0.0617 |  | 0.0767 | 0.0687 | 0.0586 |  | 
6 | MGESLFKGPRDYNPISSSICHLTNESDGHTTSLYGIGFGPFIITNKHLFRRNNGTLVVQSLHGVFKVKDTTTLQQHLVDGRDMIIIRMPKDFPPFPQKLKFREPQREERICLVTTNFQTKSMSSMVSDTSCTFPSGDGIFWKHWIQTKDGQCGSPLVSTRDGFIVGIHSASNFTNTNNYFTSVPKNFMELLTNQEAQQWVSGWRLNADSVLWGGHKVFMVKPEEPFQVVKEATQL [P228V] | 0.0588 | 0.119 | 0.0596 | 0.065 |  | 0.0621 | 0.0826 | 0.0875 |  | 0.0829 |  |  | 0.0694 |  |  | 
7 | MGESLFKGPRDYNPISSSICHLTNESDGHTTSLYGIGFGPFIITNKHLFRRNNGTLVVQSLHGVFKVKDTTTLQQHLVDGRDMIIIRMPKDFPPFPQKLKFREPQREERICLVKTNFQTKSMSSMVSDTSCTFPSGDGIFWKHWIQTKDGQCGSPLVSTRDGFIVGIHSASNFTNTNNYFTSVPKNFMELLTNQEAQQWVSGWRLNADSVLWGGHKVFMVKPEEPFQPVKEATQL [T114K] |  | 0.1 | 0.142 |  |  | 0.0749 | 0.0683 |  |  | 0.0304 |  | 0.104 | 0.0882 | 0.051 | 0.0577 | 
8 | MGESLFKGPRDYNPISSSICHLTNESDGHTTSLYGIGFGPFIITNKHLFRRNNGTLVVQSLHGVFKVKDTTTLQQHLVDGRDMIIIRMPKDFPPFPQKLKFREPQREERICLVTTNFQTKSMSSMVSDTSCTFPSGDGIFWKHWIQTKDGQCGSPLVSTRDGFIVGIHSASNFTNTNNYFTSVPKNFMELLTNQEAQQWVSGWRLNADSVLWGGHKVFMVKPEEPFQPIKEATQL [V229I] | 0.0657 | 0.101 | 0.0647 | 0.0661 |  | 0.0666 | 0.0294 |  | 0.0721 | 0.0754 |  |  |  |  | 0.0078 | 
9 | MGESLFKGPRDYNPISSSICHLTNESDGHTTSLYGIGFGPFIITNKHLFRRNNGTLVVQSLHGVFKVKDTTTLQQHLVDGRDMIIIRMPKDFPPFPQKLKFREPQREERICLVTTNFQTKSMSSMVSDTSCTFPSGDGIFWKHWIQTKDGQCGSPLVSTRDGFIVGIHSASNFTNTNNYFTSVPKNFMERLTNQEAQQWVSGWRLNADSVLWGGHKVFMVKPEEPFQPVKEATQL [L190R] | 0.0529 |  | 0.0635 | 0.0664 |  | 0.065 |  | 0.0751 | 0.0698 | 0.0687 | 0.0693 | 0.0712 |  | 0.0691 | 0.0529 | 0.0389
